The source of these data is patent US7517874B2 (priority 2007, dated 2009).

The term EC50 denotes the midpoint of the concentration-response curve.

Each structure is given as a SMILES string.

The target of one experiment is human CB2 receptor (hCB2) (Homo sapiens, UniProt P34972). Briefly: cell-based.
human CB2 receptor (hCB2), sequence (P34972 whole entry): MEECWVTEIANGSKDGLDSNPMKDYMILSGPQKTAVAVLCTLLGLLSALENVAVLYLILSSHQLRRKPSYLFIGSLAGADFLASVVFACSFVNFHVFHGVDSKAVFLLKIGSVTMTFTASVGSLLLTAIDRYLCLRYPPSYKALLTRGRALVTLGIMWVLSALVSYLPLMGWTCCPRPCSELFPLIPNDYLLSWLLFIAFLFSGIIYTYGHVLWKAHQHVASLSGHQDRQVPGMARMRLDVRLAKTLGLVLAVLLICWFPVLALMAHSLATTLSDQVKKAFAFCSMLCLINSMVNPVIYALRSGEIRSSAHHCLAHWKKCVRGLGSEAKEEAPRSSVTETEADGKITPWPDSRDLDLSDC
Settings: not given
Type of experiment: cell-based.
Regarding `CCN1CCn2c(-c3ccccc3)nc(C(=O)Nc3ccccc3)c2C1` [Compound 152, 7-ethyl-N,3-diphenyl-5,6,7,8-tetrahydroimidazo[1,5-a]pyrazine-1-carboxamide], the EC50 was more than 10000 nM.
Still for that read-out and setting: with `CNC(=O)[C@@H](NC(=O)c1nc(-c2ccc(Cl)cc2F)n2c1CN(CC(C)C)CCC2)C(C)(C)C` [Compound 322, (S)-3-(4-chloro-2-fluorophenyl)-N-(3,3-dimethyl-1-(methylamino)-1-oxobutan-2-yl)-8-isobutyl-6,7,8,9-tetrahydro-5H-imidazo[1,5-a][1,4]diazepine-1-carboxamide] the figure was more than 10000 nM; with `Cc1ccc(-c2nc(C(=O)N[C@H](c3nc(C)no3)C(C)(C)C)c3n2CCCN(C(C)C)C3)c(F)c1` [Compound 523, (S)-N-(2,2-dimethyl-1-(3-methyl-1,2,4-oxadiazol-5-yl)propyl)-3-(2-fluoro-4-methylphenyl)-8-isopropyl-6,7,8,9-tetrahydro-5H-imidazo[1,5-a][1,4]diazepine-1-carboxamide], more than 10000 nM; with `CNC(=O)[C@@H](NC(=O)c1nc(-c2ccccc2)n2c1CNCCC2)C(C)(C)O` [Compound 606, (S)-N-(3-hydroxy-3-methyl-1-(methylamino)-1-oxobutan-2-yl)-3-phenyl-6,7,8,9-tetrahydro-5H-imidazo[1,5-a][1,4]diazepine-1-carboxamide], more than 10000 nM.
On to `CNC(=O)[C@@H](NC(=O)c1nc(CCCCO)n2c1CN(C)CCC2)C(C)(C)C` [Compound 508, (S)-N-(3,3-dimethyl-1-(methylamino)-1-oxobutan-2-yl)-3-(4-hydroxybutyl)-8-methyl-6,7,8,9-tetrahydro-5H-imidazo[1,5-a][1,4]diazepine-1-carboxamide], for which the concentration giving a half-maximal response (EC50) was more than 10000 nM.
The same measure, in the same setting: the value for `CNC(=O)[C@@H](NC(=O)c1nc(-c2ccccc2)n2c1CN(Cc1ccccc1)CC2)C(C)(C)C` [Compound 61, (S)-7-benzyl-N-(3,3-dimethyl-1-(methylamino)-1-oxobutan-2-yl)-3-phenyl-5,6,7,8-tetrahydroimidazo[1,5-a]pyrazine-1-carboxamide] was more than 10000 nM.
Molecule `COC(=O)N1CCn2c(-c3ccccc3)nc(C(=O)N[C@H](C)C3CCCCC3)c2C1` [Compound 185, (R)-methyl 1-(1-cyclohexylethylcarbamoyl)-3-phenyl-5,6-dihydroimidazo[1,5-a]pyrazine-7(8H)-carboxylate] yielded an EC50 of more than 10000 nM.
Still for that read-out and setting: the value for `CC(C)CN1CCn2c(-c3ccccc3)nc(C(=O)NCC3CCOCC3)c2C1` [Compound 167, 7-isobutyl-3-phenyl-N-((tetrahydro-2H-pyran-4-yl)methyl)-5,6,7,8-tetrahydroimidazo[1,5-a]pyrazine-1-carboxamide] was more than 10000 nM; that for `CNC(=O)[C@@H](NC(=O)c1nc(-c2ccc(C(=O)N(C)C)c(F)c2)n2c1CN(C)CCC2)C(C)(C)C` [Compound 426, (S)-N-(3,3-dimethyl-1-(methylamino)-1-oxobutan-2-yl)-3-(4-(dimethylcarbamoyl)-3-fluorophenyl)-8-methyl-6,7,8,9-tetrahydro-5H-imidazo[1,5-a][1,4]diazepine-1-carboxamide] was more than 10000 nM.
Turning to `CNC(=O)[C@@H](NC(=O)c1nc(-c2ccc(Cl)cc2F)n2c1CN(C1CCN(C(C)=O)CC1)CCC2)C(C)(C)C` [Compound 527, (S)-8-(1-acetylpiperidin-4-yl)-3-(4-chloro-2-fluorophenyl)-N-(3 3-dimethyl-1-(methylamino)-1-oxobutan-2-yl)-6,7,8,9-tetrahydro-5H-imidazo[1,5-a][1,4]diazepine-1-carboxamide], the EC50 was more than 10000 nM.
`COC(=O)N1CCn2c(-c3ccccc3)nc(C(=O)N[C@@H](C)c3ccccc3)c2C1` [Compound 179, (S)-methyl 3-phenyl-1-(1-phenylethylcarbamoyl)-5,6-dihydroimidazo[1,5-a]pyrazine-7(8H)-carboxylate] showed an EC50 of more than 10000 nM.
Still for that read-out and setting: the value for `CC(C)CN1CCn2c(-c3ccccc3)nc(C(=O)N[C@H](C(=O)N(C)C)C(C)(C)C)c2C1` [Compound 80, (S)-N-(1-(dimethylamino)-3,3-dimethyl-1-oxobutan-2-yl)-7-isobutyl-3-phenyl-5,6,7,8-tetrahydroimidazo[1,5-a]pyrazine-1-carboxamide] was more than 10000 nM; that for `CCCNC(=S)N1CCn2c(-c3ccccc3)nc(C(=O)N[C@H](C(=O)NC)C(C)(C)C)c2C1` [Compound 195, (S)-N-(3,3-dimethyl-1-(methylamino)-1-oxobutan-2-yl)-3-phenyl-7-(propylcarbamothioyl)-5,6,7,8-tetrahydroimidazo[1,5-a]pyrazine-1-carboxamide] was more than 10000 nM.

Still in this experiment, the particulars now being: agonist or inverse agonist at hCB2.
For `CNC(=O)[C@@H](NC(=O)c1nc(-c2cccc(F)c2F)n2c1CN(C)CCC2)C(C)(C)C` [Compound 369, (S)-3-(2,3-difluorophenyl)-N-(3,3-dimethyl-1-(methylamino)-1-oxobutan-2-yl)-8-methyl-6,7,8,9-tetrahydro-5H-imidazo[1,5-a][1,4]diazepine-1-carboxamide], the “+/− HCB2” value was “+”.
Still for that read-out and setting: the value for `CNC(=O)[C@@H](NC(=O)c1nc(-c2ccccc2)n2c1CN(S(=O)(=O)c1cccc(F)c1)CC2)C(C)(C)C` [Compound 99, (S)-N-(3,3-dimethyl-1-(methylamino)-1-oxobutan-2-yl)-7-(3-fluorophenylsulfonyl)-3-phenyl-5,6,7,8-tetrahydroimidazo[1,5-a]pyrazine-1-carboxamide] was “−”; that for `CNC(=O)[C@@H](NC(=O)c1nc(-c2ccncc2)n2c1CN(C)CCC2)C(C)(C)C` [Compound 402, (S)-N-(3,3-dimethyl-1-(methylamino)-1-oxobutan-2-yl)-8-methyl-3-(pyridin-4-yl)-6,7,8,9-tetrahydro-5H-imidazo[1,5-a][1,4]diazepine-1-carboxamide] was “+”; that for `CNC(=O)[C@H](CC(C)(C)C)NC(=O)c1nc(-c2cc(Cl)ccc2F)n2c1CN(C)CCC2` [Compound 545, (S)-3-(5-chloro-2-fluorophenyl)-N-(4,4-dimethyl-1-(methylamino)-1-oxopentan-2-yl)-8-methyl-6,7,8,9-tetrahydro-5H-imidazo[1,5-a][1,4]diazepine-1-carboxamide] was “+”.
Regarding `Cc1noc([C@@H](NC(=O)c2nc(-c3ccccc3)n3c2CNCCC3)C(C)(C)C)n1` [Compound 519, (S)-N-(2,2-dimethyl-1-(3-methyl-1,2,4-oxadiazol-5-yl)propyl)-3-phenyl-6,7,8,9-tetrahydro-5H-imidazo[1,5-a][1,4]diazepine-1-carboxamide], the “+/− HCB2” value is recorded as “+”.
Same read-out and setting: with `CNC(=O)[C@@H](NC(=O)c1nc(-c2ccc3ccccc3c2)n2c1CN(C)CCC2)C(C)(C)C` [Compound 380, (S)-N-(3,3-dimethyl-1-(methylamino)-1-oxobutan-2-yl)-8-methyl-3-(naphthalen-2-yl)-6,7,8,9-tetrahydro-5H-imidazo[1,5-a][1,4]diazepine-1-carboxamide] the entry was “+”; with `CNC(=O)[C@H](CC(C)(C)C)NC(=O)c1nc(-c2ccc(F)cc2)n2c1CN(C)CCC2` [Compound 547, (S)-N-(4,4-dimethyl-1-(methylamino)-1-oxopentan-2-yl)-3-(4-fluorophenyl)-8-methyl-6,7,8,9-tetrahydro-5H-imidazo[1,5-a][1,4]diazepine-1-carboxamide], “+”.
Still for that read-out and setting: with `CNC(=O)[C@@H](NC(=O)c1nc(-c2cc3ccccc3o2)n2c1CN(C)CCC2)C(C)(C)C` [Compound 351, (S)-3-(benzofuran-2-yl)-N-(3,3-dimethyl-1-(methylamino)-1-oxobutan-2-yl)-8-methyl-6,7,8,9-tetrahydro-5H-imidazo[1,5-a][1,4]diazepine-1-carboxamide] the entry was “+”; with `CN1CCCn2c(-c3ccc(Cl)cc3F)nc(C(=O)N[C@@H](CC(C)(C)C)C(N)=O)c2C1` [Compound 584, (S)-N-(1-amino-4,4-dimethyl-1-oxopentan-2-yl)-3-(4-chloro-2-fluorophenyl)-8-methyl-6,7,8,9-tetrahydro-5H-imidazo[1,5-a][1,4]diazepine-1-carboxamide], “+”.
Same read-out and setting: with `CN1CCCn2c(-c3ccc(F)c(F)c3)nc(C(=O)N[C@H](C(=O)N(C)C)C(C)(C)C)c2C1` [Compound 561, (S)-3-(3,4-difluorophenyl)-N-(1-(dimethylamino)-3,3-dimethyl-1-oxobutan-2-yl)-8-methyl-6,7,8,9-tetrahydro-5H-imidazo[1,5-a][1,4]diazepine-1-carboxamide] the entry was “+”; with `COCCNC(=O)[C@@H](NC(=O)c1nc(-c2ccccc2)n2c1CN(C)CCC2)C(C)(C)C` [Compound 475, (S)-N-(1-(2-methoxyethylamino)-3,3-dimethyl-1-oxobutan-2-yl)-8-methyl-3-phenyl-6,7,8,9-tetrahydro-5H-imidazo[1,5-a][1,4]diazepine-1-carboxamide], “+”.

The same experiment, now with this note: groups >100 nM-10 μM and >10 μM; cAMP, CHO-K1 hCB2; read-out: EC50 HCB2.
With `CC(C)(C)OC(=O)N1CCCn2c(-c3ccccc3)nc(C(=O)N[C@H](C(=O)O)C(C)(C)C)c2C1` [Compound 515, (S)-2-(8-(tert-butoxycarbonyl)-3-phenyl-6,7,8,9-tetrahydro-5H-imidazo[1,5-a][1,4]diazepine-1-carboxamido)-3,3-dimethylbutanoic acid], the EC50 is more than 10000 nM.
As to `CNC(=O)c1cccc(NC(=O)c2nc(-c3ccc(Cl)cc3F)n3c2CN(C)CC3)c1` [Compound 216, 3-(4-chloro-2-fluorophenyl)-7-methyl-N-(3-(methylcarbamoyl)phenyl)-5,6,7,8-tetrahydroimidazo[1,5-a]pyrazine-1-carboxamide], the EC50 is more than 10000 nM.
As for `O=C(NCC1CCOCC1)c1nc(-c2ccccc2)n2c1CN(C(=O)C1CCOC1)CC2` (stereo not shown) [Compound 135, 3-phenl-N-((tetrahydro-2H-pyran-4-yl)methyl)-7-(tetrahydrofuran-3-carbonyl)-5,6,7,8-tetrahydroimidazo[1,5-a]pyrazine-1-carboxamide], the EC50 is more than 10000 nM.
Still for that read-out and setting: with `CN1CCn2c(-c3ccc(Cl)cc3F)nc(C(=O)N3CCN(c4ncccn4)CC3)c2C1` [Compound 211, (3-(4-chloro-2-fluorophenyl)-7-methyl-5,6,7,8-tetrahydroimidazo[1,5-a]pyrazin-1-yl)(4-(pyrimidin-2-yl)piperazin-1-yl)methanone] the figure was more than 10000 nM.
